Structures can show the parent of a compound that is named as a salt. ± gives the standard deviation of the averaged measurements. Whole data set: some 2,000 compounds, median “relative cell viability vs DMSO, compound alone” near 1.1, cut for the lowest 2% near 0.29. Some of the results follow.
Test system: TE10
Assay: relative cell viability vs DMSO, compound alone (fraction); TE10 is an esophageal squamous carcinoma line; higher = less cytotoxic
Conditions: 2 µM; 48 h
Method: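 TE10 ESCC cells (1,000/well, 384-well plates) were treated with Selleck bioactive library compounds at 2 uM alone for 48 h. Viability was read by CellTiter-Glo and expressed relative to DMSO wells. Two technical replicates (A, B).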

Row | SMILES | relative cell viability
1 | CNc1cc(-c2cccc(Cl)c2Cl)nc(N)n1 | 0.935 ± 0.027
2 | C[C@@H](O[C@H]1OCCN(Cc2nn(P(=O)(O)O)c(=O)[nH]2)[C@H]1c1ccc(F)cc1)c1cc(C(F)(F)F)cc(C(F)(F)F)c1 [Fosaprepitant dimeglumine salt] | 1.06 ± 0.045
3 | CCC(C)(Oc1ccc(C2(c3ccc(OC(C)(CC)C(=O)O)cc3)CCCCC2)cc1)C(=O)O (centres undefined) [Clinofibrate] | 1.105 ± 0.01
4 | COc1cc2nccc(Oc3ccc(NC(=O)NC4CC4)c(Cl)c3)c2cc1C(N)=O [Lenvatinib (E7080)] | 1.13 ± 0.027
5 | Cc1ncc(-c2ccnc(Nc3ccc(S(C)(=O)=O)cc3)n2)n1C(C)C | 0.689 ± 0.052
6 | CS(=O)(=O)OCCCCOS(C)(=O)=O [Busulfan] | 0.932 ± 0.0095
7 | N#Cc1ccc(-c2csc(NN=C3CCCC3)n2)cc1 [Remodelin] | 1.121 ± 0.0093
8 | O=C(/C=C/c1ccc(O)cc1)c1ccc(O)cc1O [Isoliquiritigenin] | 0.965 ± 0.035
9 | N#CCNC(=O)c1ccc(-c2ccnc(Nc3ccc(N4CCOCC4)cc3)n2)cc1 | 1.14 ± 0.034
10 | OCc1c[nH]c2ccccc12 [Indole-3-carbinol] | 1.14 ± 0.048
11 | COc1ccc(C2CC(=O)c3c(O)cc(OC4OC(COC5OC(C)C(O)C(O)C5O)C(O)C(O)C4O)cc3O2)cc1OC (centres undefined) [Methyl-Hesperidin] | 1.06 ± 0.057
12 | CN(C)C(=O)[C@H](O)[C@H](Cc1ccccc1)NC(=O)c1cc2cc(Cl)ccc2[nH]1 | 1 ± 0.19
13 | O=C(Oc1cc(S(=O)(=O)c2ccccc2)ccc1[N+](=O)[O-])c1ccc(Cl)cc1 | 1.095 ± 0.0016
14 | N[C@@H](Cc1cc(I)c(Oc2ccc(O)c(I)c2)c(I)c1)C(=O)O [Liothyronine Sodium] | 0.869 ± 0.12
15 | Cc1ccc(=O)n(-c2ccccc2)c1 [Pirfenidone] | 1.18 ± 0.027
16 | C[C@H](CCC(=O)O)[C@H]1CC[C@H]2[C@@H]3[C@@H](O)C[C@@H]4C[C@H](O)CC[C@]4(C)[C@H]3CC[C@]12C [Ursodiol] | 0.96 ± 0.08
17 | O=C(CCCN1CCN(c2ccccn2)CC1)c1ccc(F)cc1 [Azaperone] | 1.1 ± 0.032
18 | O=C(Nc1ccncc1)c1cc([N+](=O)[O-])ccc1Cl | 1.2 ± 0.041
19 | COCCCN1CCC(NC(=O)c2cc(Cl)c(N)c3c2OCC3)CC1 [Prucalopride] | 1.07 ± 0.093
20 | COCCCN1CCC(NC(=O)c2cc(Cl)c(N)c3c2OCC3)CC1 [Prucalopride Succinat] | 1.01 ± 0.018
21 | CNc1nc(Nc2cn(C(C)(C)C#N)nc2C)ncc1C(F)(F)F | 1.11 ± 0.026
22 | COC(=O)C1=C(C#N)NC(C)=C(C(=O)OC(C)C)C1c1cccc([N+](=O)[O-])c1 (centres undefined) [Nilvadipine] | 1.13 ± 0.024
23 | Cc1ccc(NC(=O)c2cccc(C(C)(C)C#N)c2)cc1Nc1ccc2ncn(C)c(=O)c2c1 | 0.886 ± 0.17
24 | OCCN(CCO)c1nc(N2CCCCC2)c2nc(N(CCO)CCO)nc(N3CCCCC3)c2n1 [Dipyridamole] | 1.1412 ± 0.0007
25 | CC[C@@H](C)Nc1cc(C(=O)N[C@H]2C[C@H]3CC[C@@H](C2)N3c2ccc(C(=O)C3CC3)cn2)c(C)cc1C(N)=O | 0.449 ± 0.023
26 | C[C@]12CC[C@@H]3c4ccc(OC(=O)c5ccccc5)cc4CC[C@H]3[C@@H]1CC[C@@H]2O [Estradiol Benzoate] | 1.052 ± 0.0075
27 | Cc1ccc(F)c(NC(=O)Nc2ccc(-c3cccc4[nH]nc(N)c34)cc2)c1 [Linifanib (ABT-869)] | 0.983 ± 0.068

Row | SMILES | relative cell viability
28 | CN1CCN(C(c2ccccc2)c2ccccc2)CC1 [Cyclizine 2HCl] | 1.124 ± 0.0085
29 | CC(C)OC(=O)C1=CN(C(=O)c2ccc(F)c(F)c2)CC(C)(C)c2c1[nH]c1ccccc21 | 1.12 ± 0.032
30 | CC(C)(C)[N+]([O-])=Cc1ccc(S(=O)(=O)O)cc1S(=O)(=O)O | 0.884 ± 0.17
31 | Cc1c(-c2cnccn2)ssc1=S [Oltipraz] | 0.944 ± 0.13
32 | Cc1cccc(CC(=O)N2CCc3c2ccc(-c2cn(C)c4ncnc(N)c24)c3F)n1 | 1.01 ± 0.047
33 | COc1ccc(-n2c(SCCCN3C(=O)c4cccc5cccc(c45)C3=O)nnc2-c2ccncc2)cc1 | 1.09 ± 0.024
34 | CC(C)OC(=O)OCOP(=O)(CO[C@H](C)Cn1cnc2c(N)ncnc21)OCOC(=O)OC(C)C [Tenofovir Disoproxil Fumarate] | 1.27 ± 0.055
35 | COc1c/c(=C2\C=c3ccccc3=N2)[nH]/c1=C\c1[nH]c(C)cc1C [Obatoclax Mesylate (GX15-070)] | 0.4397 ± 0.0027
36 | Cc1cc(NS(=O)(=O)c2ccc(N)cc2)no1 [Sulfamethoxazole] | 1 ± 0.11
37 | Nc1[nH]nc2nnc(-c3c(-c4ccccc4)nn4ccccc34)cc12 | 1.08 ± 0.046
38 | COc1cc(N2CCC(N)CC2)ccc1Nc1ncc(Cl)c(-c2c[nH]c3ccccc23)n1 | 0.783 ± 0.016
39 | CCOC(=O)n1ccn(C)c1=S [Carbimazole] | 1.17 ± 0.025
40 | CC1(C)S[C@@H]2[C@H](NC(=O)C(C(=O)O)c3ccccc3)C(=O)N2[C@H]1C(=O)O (some centres undefined) [Carbenicillin disodium] | 1.0374 ± 3.5e-05
41 | CC(C)(C)C(=O)C(Oc1ccc(Cl)cc1)n1ccnc1 (centres undefined) [Climbazole] | 1.08 ± 0.021
42 | CC(C)N(CCCNC(=O)Nc1ccc(C(C)(C)C)cc1)C[C@H]1O[C@@H](n2cc(Br)c3c(N)ncnc32)[C@H](O)[C@@H]1O | 0.972 ± 0.28
43 | COc1ccc2c(c1)c(C1=C(c3c[nH]c4ccccc34)C(=O)NC1=O)cn2CCCN(C)C | 1.07 ± 0.029
44 | O=c1cc(-c2ccccc2)oc2cc(O)cc(O)c12 [Chrysin] | 1.073 ± 0.0048
45 | C=C[C@@]1(C)CC(=O)[C@]2(O)[C@@]3(C)[C@@H](O)CCC(C)(C)[C@@H]3[C@H](O)[C@H](OC(C)=O)[C@@]2(C)O1 [Forskolin] | 1.11 ± 0.067
46 | O=C(CCCCCN1C(=O)c2cccc3cccc(c23)C1=O)NO [Scriptaid] | 0.699 ± 0.099
47 | Cc1cc(OCCCS(C)(=O)=O)cc(C)c1-c1cccc(COc2ccc3c(c2)OC[C@H]3CC(=O)O)c1 | 1.121 ± 0.0019
48 | CCN(CC)C(=S)SSC(=S)N(CC)CC [Disulfiram] | 0.298 ± 0.03
49 | COc1cc2/c(=N/c3ccc(Br)cc3F)nc[nH]c2cc1OCC1CCN(C)CC1 [Vandetanib (ZD6474)] | 1.26 ± 0.092
50 | CC1(C)O[C@@H]2C[C@H]3[C@@H]4CCC5=CC(=O)C=C[C@]5(C)[C@H]4[C@@H](O)C[C@]3(C)[C@]2(C(=O)CO)O1 [Desonide] | 0.9976 ± 0.0055
51 | O=C(O)c1ccc2c(c1)nc(Nc1cccc(Cl)c1)c1ccncc12 [CX-4945 (Silmitasertib)] | 0.843 ± 0.13
52 | O=C1CC(=O)c2c(Cl)c(Cl)c(Cl)c(Cl)c21 | 1.05 ± 0.019
53 | NCCCCCNCC12CC3CC(CC(C3)C1)C2 [IEM 1754 dihydrobroMide] | 1.16 ± 0.054
54 | Nc1nonc1C(=Nc1ccc(F)c(Cl)c1)NO | 1.09 ± 0.054

Row | SMILES | relative cell viability
55 | O=C(CCCCCCC(=O)Nc1ccccc1)NO [Vorinostat (SAHA, MK0683)] | 0.568 ± 0.064
56 | O=C(/C=C/c1ccc(O)c(O)c1)c1ccc(O)cc1O [Butein] | 1.02 ± 0.042
57 | COc1ccc(S(=O)(=O)Nc2cccnc2Nc2ccc(O)cc2)cc1 | 0.809 ± 0.052
58 | O=C(Nc1cc2cc[nH]c2cn1)c1ccccc1 | 0.53 ± 0.024
59 | O=C1NCCc2[nH]c(-c3ccncc3)cc21 | 1.09 ± 0.14
60 | COC(=O)C1=C(C)NC(C)=C(C(=O)OC2CCCN(Cc3ccccc3)C2)C1c1cccc([N+](=O)[O-])c1 (centres undefined) [Benidipine HCl] | 1.06 ± 0.025
61 | CCNC(=O)CCC/C=C\C[C@@H]1[C@@H](/C=C/[C@@H](O)CCc2ccccc2)[C@H](O)C[C@@H]1O [Bimatoprost] | 1.134 ± 0.005
62 | Nc1nc2c(ncn2COCCO)c(=O)[nH]1 [Aciclovir] | 1.06 ± 0.045
63 | COc1ccc2[nH]c([S@@+]([O-])Cc3ncc(C)c(OC)c3C)nc2c1 [Esomeprazole Sodium] | 1.15 ± 0.057
64 | COc1ccc2[nH]c([S@@+]([O-])Cc3ncc(C)c(OC)c3C)nc2c1 [Esomeprazole Magnesium] | 1.2 ± 0.017
65 | CC(C)NCC(O)c1ccc(O)c(O)c1 (centres undefined) [Isoprenaline HCl] | 1.01 ± 0.019
66 | CS(=O)(=O)N1CCN(Cc2cc3nc(-c4cccc5[nH]ncc45)nc(N4CCOCC4)c3s2)CC1 | 0.483 ± 0.0077
67 | NC1CC1c1ccc(-c2cccc(O)c2)cc1 (centres undefined) | 1.09 ± 0.03
68 | COc1c(N2C[C@@H]3CCCN[C@@H]3C2)c(F)cc2c(=O)c(C(=O)O)cn(C3CC3)c12 [Moxifloxacin HCl] | 1.18 ± 0.016
69 | CC(=O)OCC(=O)[C@@]1(O)[C@H](C)C[C@H]2[C@@H]3CCC4=CC(=O)C=C[C@]4(C)[C@@]3(F)[C@@H](O)C[C@@]21C [Dexamethasone Acetate] | 0.868 ± 0.012
70 | COc1ccc(C(=O)CC(=O)c2ccc(C(C)(C)C)cc2)cc1 [Avobenzone] | 1.14 ± 0.063
71 | CCOC(=O)C1=C(C)NC(C)=C(C(=O)OCC)C1c1ccccc1/C=C/C(=O)OC(C)(C)C [Lacidipine] | 0.993 ± 0.065
72 | CCOc1cc(CC(=O)N[C@@H](CC(C)C)c2ccccc2N2CCCCC2)ccc1C(=O)O [Repaglinide] | 1.15 ± 0.16
73 | O=C(O)C(Cc1c[nH]c2ccccc12)N1C(=O)c2ccccc2C1=O (centres undefined) | 0.692 ± 0.032
74 | COc1cc(F)c(F)c(Nc2ccc(I)cc2F)c1NS(=O)(=O)C1(C[C@H](O)CO)CC1 [Refametinib (RDEA119, Bay 86-9766)] | 0.9425 ± 0.0049
75 | C#C[C@]1(O)CC[C@H]2[C@@H]3CCc4cc(O)ccc4[C@H]3CC[C@@]21C [Ethinyl Estradiol] | 1.07 ± 0.03
76 | CC#CC(=O)Nc1ccc2ncnc(Nc3cccc(Br)c3)c2c1 | 0.773 ± 0.043
77 | O=S(=O)(c1ccccc1)N(CC(F)(F)F)c1ccc(C(O)(C(F)(F)F)C(F)(F)F)cc1 | 1.1 ± 0.037
78 | CCCCN(Cc1ccc(C(=O)NO)cc1)C(=O)Nc1ccccc1 [Nexturastat A] | 0.716 ± 0.074
79 | COC(=O)N[C@H](C(=O)N1CCC[C@H]1c1ncc(-c2ccc(-c3ccc(-c4cnc([C@@H]5CCCN5C(=O)[C@@H](NC(=O)OC)C(C)C)[nH]4)cc3)cc2)[nH]1)C(C)C | 1.05 ± 0.11

From the supplement of paper PMC10670038
